Lines with a small IC50 respond at low doses; fits outside the tested doses are given as limits. AUC sums up the same curve from the lowest dose to the 256-fold higher top dose; it is 1 without any effect and falls as sensitivity rises. For part of these data: Where the top dose is marked as inferred, it was derived from the fitted curves, not read from the paper.
Assays:
Assay in all cases: Viability of human cancer cell lines after 72 h of drug (GDSC screen)
XMD15-27 = compound: C=CC(=O)Nc1ccc(C(=O)c2sc(Nc3ccc(N4CCN(C)CC4)cc3OC)nc2N)cc1 [XMD15-27]; details: top dose 10.24 µM; top dose inferred
Experimental: (§1)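 Human cancer cell lines in 384-well plates, medium with 10% serum, drug for 72 h over a 256-fold dose range (nine 2-fold or five 4-fold steps up to the top dose). Adherent lines were fixed and stained with the nucleic acid dye Syto60, suspension lines read with resazurin; signal relative to control wells, capped at 0 and 100%. One two-parameter sigmoid per drug and line, fitted in a mixed model over all curves with the slope shared within a line.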

SL 0101-1 = compound: CC(=O)O[C@@H]1[C@@H](OC(C)=O)[C@@H](O)[C@H](Oc2c(-c3ccc(O)cc3)oc3cc(O)cc(O)c3c2=O)O[C@H]1C [SL 0101-1]; details: top dose 10 µM; top dose inferred
Experimental: as §1

Temsirolimus = compound: CO[C@H]1C[C@@H]2CC[C@@H](C)[C@@](O)(O2)C(=O)C(=O)N2CCCC[C@H]2C(=O)O[C@H]([C@H](C)C[C@@H]2CC[C@@H](OC(=O)C(C)(CO)CO)[C@H](OC)C2)CC(=O)[C@H](C)/C=C(\C)[C@@H](O)[C@@H](OC)C(=O)[C@H](C)C[C@H](C)/C=C/C=C/C=C/1C [Temsirolimus]; details: top dose 0.2 µM
Experimental: as §1

Row | Cell Line | AUC (XMD15-27) | IC50 (XMD15-27) [µM] | AUC (SL 0101-1) | IC50 (SL 0101-1) [µM] | AUC (Temsirolimus) | IC50 (Temsirolimus) [µM]
1 | NCI-H211 (small cell lung carcinoma, adherent) | 0.985 | > 10.2 | 0.982 | > 10 | 0.906 | > 0.2
2 | HCT-15 (large intestine, adherent) | 0.984 | > 10.2 | 0.987 | > 10 | 0.87 | > 0.2
3 | TK (B-cell lymphoma, suspension) | 0.99 | > 10.2 | 0.989 | > 10 | 0.905 | > 0.2
4 | MZ1-PC (pancreas, adherent) | 0.951 | > 10.2 | 0.911 | > 10 | 0.97 | > 0.2
5 | LN-18 (glioma, adherent) | 0.992 | > 10.2 | 0.994 | > 10 | 0.849 | 0.108
6 | SU-DHL-5 (B-cell lymphoma, suspension) | 0.985 | > 10.2 | 0.992 | > 10 | 0.143 | 0.00152
7 | MOLT-4 (lymphoblastic leukaemia, suspension) | 0.981 | > 10.2 | 0.95 | > 10 | 0.364 | 0.0057
8 | DOK (head and neck, adherent) | 0.976 | > 10.2 | 0.904 | > 10 | 0.626 | 0.0331
9 | SUP-T1 (T-cell lymphoblastic leukaemia, suspension) | 0.988 | > 10.2 | 0.985 | > 10 | 0.979 | > 0.2
10 | MG-63 (osteosarcoma, adherent) | 0.984 | > 10.2 | 0.974 | > 10 | 0.71 | 0.0545
11 | SU8686 (pancreas, adherent) | 0.985 | > 10.2 | 0.981 | > 10 | 0.455 | 0.00926
12 | SAT (head and neck, adherent) | 0.973 | > 10.2 | 0.959 | > 10 | 0.714 | 0.071
13 | OACp4C (oesophagus, adherent) | 0.919 | > 10.2 | 0.982 | > 10 | 0.792 | 0.111
14 | RCC-AB (kidney, adherent) | 0.958 | > 10.2 | 0.981 | > 10 | 0.881 | > 0.2
15 | NCI-H1693 (lung adenocarcinoma, adherent) | 0.972 | > 10.2 | 0.957 | > 10 | 0.674 | 0.0515
16 | SK-MEL-3 (melanoma, adherent) | 0.977 | > 10.2 | 0.984 | > 10 | 0.88 | > 0.2
17 | VAL (B-cell lymphoma, suspension) | 0.98 | > 10.2 | 0.987 | > 10 | 0.716 | 0.0513
18 | ES-2 (ovary, adherent) | 0.991 | > 10.2 | 0.991 | > 10 | 0.891 | 0.183
19 | KY821 (leukaemia, suspension) | 0.991 | > 10.2 | 0.933 | > 10 | 0.979 | > 0.2
20 | SK-MM-2 (myeloma, suspension) | 0.981 | > 10.2 | 0.987 | > 10 | 0.97 | > 0.2
21 | D-392MG (glioma, adherent) | 0.98 | > 10.2 | 0.958 | > 10 | 0.709 | 0.0609
22 | LB831-BLC (bladder, adherent) | 0.987 | > 10.2 | 0.985 | > 10 | 0.874 | 0.2
23 | OE33 (oesophagus, adherent) | 0.983 | > 10.2 | 0.94 | > 10 | 0.813 | 0.134
24 | CHP-212 (neuroblastoma, adherent) | 0.968 | > 10.2 | 0.977 | > 10 | 0.614 | 0.025

Row | Cell Line | AUC (XMD15-27) | IC50 (XMD15-27) [µM] | AUC (SL 0101-1) | IC50 (SL 0101-1) [µM] | AUC (Temsirolimus) | IC50 (Temsirolimus) [µM]
25 | YT (lymphoid neoplasm, suspension) | 0.992 | > 10.2 | 0.959 | > 10 | 0.354 | 0.00528
26 | CAL-85-1 (breast, adherent) | 0.959 | > 10.2 | 0.966 | > 10 | 0.964 | > 0.2
27 | NCI-H2110 (non-small cell lung carcinoma, adherent) | 0.98 | > 10.2 | 0.961 | > 10 | 0.874 | > 0.2
28 | NCI-H187 (small cell lung carcinoma, suspension) | 0.981 | > 10.2 | 0.988 | > 10 | 0.926 | > 0.2
29 | COLO-783 (melanoma, adherent) | 0.986 | > 10.2 | 0.98 | > 10 | 0.915 | > 0.2
30 | AMO-1 (haematopoietic neoplasm, suspension) | 0.991 | > 10.2 | 0.989 | > 10 | 0.847 | 0.117
31 | MEG-01 (chronic myeloid leukaemia, suspension) | 0.983 | > 10.2 | 0.988 | > 10 | 0.867 | 0.163
32 | HT (B-cell lymphoma, suspension) | 0.986 | > 10.2 | 0.966 | > 10 | 0.788 | 0.0801
33 | RL (B-cell lymphoma, suspension) | 0.99 | > 10.2 | 0.99 | > 10 | 0.669 | 0.0354
34 | EW-3 (Ewing sarcoma, adherent) | 0.958 | > 10.2 | 0.984 | > 10 | 0.779 | 0.0941
35 | DoTc2-4510 (cervix, adherent) | 0.989 | > 10.2 | 0.988 | > 10 | 0.928 | > 0.2
36 | SW1271 (small cell lung carcinoma, adherent) | 0.973 | > 10.2 | 0.984 | > 10 | 0.863 | > 0.2
37 | NCI-H1770 (non-small cell lung carcinoma, suspension) | 0.992 | > 10.2 | 0.992 | > 10 | 0.978 | > 0.2
38 | Detroit562 (head and neck, adherent) | 0.988 | > 10.2 | 0.977 | > 10 | 0.831 | 0.12
39 | JURL-MK1 (chronic myeloid leukaemia, suspension) | 0.982 | > 10.2 | 0.949 | > 10 | 0.48 | 0.011
40 | RCC-MF (kidney, adherent) | 0.971 | > 10.2 | 0.972 | > 10 | 0.437 | 0.00799
41 | SLVL (B-cell lymphoma, suspension) | 0.969 | > 10.2 | 0.975 | > 10 | 0.851 | 0.168
42 | Calu-6 (lung adenocarcinoma, adherent) | 0.983 | > 10.2 | 0.983 | > 10 | 0.967 | > 0.2
43 | NCI-H841 (small cell lung carcinoma, adherent) | 0.982 | > 10.2 | 0.988 | > 10 | 0.605 | 0.0243
44 | 8-MG-BA (glioma, adherent) | 0.955 | > 10.2 | 0.977 | > 10 | 0.828 | 0.113
45 | SNU-61 (large intestine, adherent) | 0.975 | > 10.2 | 0.982 | > 10 | 0.981 | > 0.2
46 | NB6 (neuroblastoma, adherent) | 0.984 | > 10.2 | 0.984 | > 10 | 0.957 | > 0.2
47 | MDA-MB-361 (breast, adherent) | 0.985 | > 10.2 | 0.988 | > 10 | 0.726 | 0.0544
48 | NCI-H747 (large intestine, adherent) | 0.957 | > 10.2 | 0.981 | > 10 | 0.913 | > 0.2

Row | Cell Line | AUC (XMD15-27) | IC50 (XMD15-27) [µM] | AUC (SL 0101-1) | IC50 (SL 0101-1) [µM] | AUC (Temsirolimus) | IC50 (Temsirolimus) [µM]
49 | GI-1 (glioma, adherent) | 0.987 | > 10.2 | 0.977 | > 10 | 0.744 | 0.0601
50 | OV-7 (ovary, adherent) | 0.967 | > 10.2 | 0.964 | > 10 | 0.763 | 0.11
51 | FU97 (stomach, adherent) | 0.98 | > 10.2 | 0.986 | > 10 | 0.663 | 0.0359
52 | IST-SL1 (small cell lung carcinoma, semi-adherent) | 0.964 | > 10.2 | 0.979 | > 10 | 0.935 | > 0.2
53 | SW1710 (bladder, adherent) | 0.981 | > 10.2 | 0.961 | > 10 | 0.692 | 0.044
54 | KARPAS-231 (B-cell leukaemia, suspension) | 0.86 | 5.58 | 0.977 | > 10 | 0.378 | 0.00626
55 | MDA-MB-453 (breast, adherent) | 0.935 | > 10.2 | 0.976 | > 10 | 0.925 | > 0.2
56 | KMOE-2 (acute myeloid leukaemia, suspension) | 0.984 | > 10.2 | 0.978 | > 10 | 0.945 | > 0.2
57 | NCI-H2342 (lung adenocarcinoma, adherent) | 0.986 | > 10.2 | 0.986 | > 10 | 0.874 | > 0.2
58 | TT (thyroid, adherent) | 0.983 | > 10.2 | 0.981 | > 10 | 0.75 | 0.0887
59 | PFSK-1 (medulloblastoma, adherent) | 0.984 | > 10.2 | 0.977 | > 10 | 0.471 | 0.0104
60 | KINGS-1 (glioma, adherent) | 0.98 | > 10.2 | 0.972 | > 10 | 0.777 | 0.114
61 | PCI-4B (head and neck, adherent) | 0.965 | > 10.2 | 0.974 | > 10 | 0.565 | 0.0187
62 | MLMA (hairy cell leukaemia, semi-adherent) | 0.975 | > 10.2 | 0.954 | > 10 | 0.349 | 0.00476
63 | SUP-HD1 (Hodgkin lymphoma, suspension) | 0.95 | > 10.2 | 0.984 | > 10 | 0.634 | 0.0287
64 | RC-K8 (B-cell lymphoma, suspension) | 0.991 | > 10.2 | 0.989 | > 10 | 0.869 | 0.145
65 | EVSA-T (breast, adherent) | 0.991 | > 10.2 | 0.991 | > 10 | 0.815 | 0.0906
66 | NB69 (neuroblastoma, adherent) | 0.99 | > 10.2 | 0.971 | > 10 | 0.321 | 0.00423
67 | COR-L279 (small cell lung carcinoma, suspension) | 0.988 | > 10.2 | 0.991 | > 10 | 0.977 | > 0.2
68 | SW756 (cervix, adherent) | 0.985 | > 10.2 | 0.985 | > 10 | 0.869 | > 0.2
69 | DU-4475 (breast, suspension) | 0.992 | > 10.2 | 0.962 | > 10 | 0.728 | 0.048
70 | ONS-76 (medulloblastoma, adherent) | 0.953 | > 10.2 | 0.983 | > 10 | 0.587 | 0.0221
71 | DB (B-cell lymphoma, suspension) | 0.977 | > 10.2 | 0.911 | > 10 | 0.42 | 0.00734
